Test results published in the antibiotic and cytotoxicity screens of Wong et al. (2023).
Some of the results follow.

system: S. aureus RN4220; assay: growth inhibition call (relative growth <= 0.2); conditions: 50 µM

Growth inhibition call, inactive:
CCS(=O)(=O)N1C[C@]2(C1)CN([C@@H](CO)c1[nH]c3cc(ccc3c12)OC)C(=O)Nc1c(noc1C)C, O=C(O)[C@H]1CCCNC1, C[C@H](CO)N1C[C@H](C)[C@@H](CN(C)C(=O)c2cccnc2)Oc2cc(C#CC3(O)CCCC3)ccc2S1(=O)=O, O=C(C[C@@H]1CC[C@H](NS(=O)(=O)c2ccccc2)[C@@H](CO)O1)NCc1ccncn1, C[C@H]1CCCCO[C@@H](CN(C)CC2CCCCC2)[C@@H](C)CN([C@@H](C)CO)C(=O)c2cc(NC(=O)Nc3ccccc3)ccc2O1, C[C@H](CO)N1C[C@H](C)[C@H](CN(C)Cc2ccc(-c3ccccc3)cc2)Oc2c(NS(=O)(=O)c3cccs3)cccc2C1=O, Cl.NCc1ccc(S(N)(=O)=O)cc1, CS(=O)(=O)O.Oc1ccc(C2CNCCc3c2cc(O)c(O)c3Cl)cc1 (centres undefined), COc1ccccc1S(=O)(=O)N[C@H]1CC[C@@H](CCNC(=O)C2CC2)O[C@H]1CO, C[C@H]1CN([C@@H](C)CO)S(=O)(=O)c2ccc(-c3cccc(C(=O)N(C)C)c3)cc2O[C@H]1CN(C)C(=O)Cc1ccccn1, C[C@@H]1CCCCO[C@@H](CN(C)Cc2ccccc2)[C@H](C)CN([C@H](C)CO)C(=O)c2cc(NS(=O)(=O)c3ccccc3)ccc2O1, COc1ccc(NC(=O)Nc2ccc3c(c2)C(=O)N([C@@H](C)CO)C[C@@H](C)[C@H](CN(C)Cc2ccc(C(=O)O)cc2)OCCCC[C@H](C)O3)cc1, CCCNC(=O)C[C@H]1CC[C@@H]2[C@@H](COc3ccc(NC(=O)c4ccc5c(c4)OCO5)cc3C(=O)N2C)O1, COc1ccc(-c2cc(=O)c3c(OC)c(OC)c(OC)c(OC)c3o2)cc1OC, O=C(NO)c1ccc(C(=O)N/N=C/[C@H](O)[C@@H](O)[C@@H](O)[C@H](O)CO)cc1, CC(C)C(=O)Nc1cccc(Cl)c1, c1ccc2c([C@@H]3CCCN3)cccc2c1, CN1CCN(C)C2(CCN(C(=O)c3ccn[nH]3)CC2)C1=O, COC(=O)c1c2oc(c1C(=O)OC)C(=O)N(C)Cc1cn(nn1)C[C@@H](C)NC(=O)N[C@H](CO)CC2
